Results from US7423058B2, “Inhibitors of hepatitis C virus NS3 protease” (Schering Corporation, priority 2004, dated 2008).

Molecular target: Recombinant heterodimeric HCV NS3/NS4A protease (strain 1a) (Hepatitis C virus genotype 1a, UniProt P27958)
Experiment: Spectrophotometric assay for HCV protease inhibitory activity (chromogenic ester substrates)
Format: biochemical
Conditions: Table 1: Ketones; read-out: Ki* Range

CC(C)(C)[C@H](NC(=O)NC1(C(=O)c2ccccn2)CCCCC1)C(=O)N1C[C@H]2[C@@H]([C@H]1C(=O)NC(CC1CC1)C(=O)C(N)=O)C2(C)C (stereo partly shown) [compound 4190] and CC(C)(C)[C@H](NC(=O)NC1(C(=O)c2ccccc2)CCCC1)C(=O)N1C[C@H]2[C@@H]([C@H]1C(=O)NC(CC1CC1)C(=O)C(N)=O)C2(C)C (stereo partly shown) [compound 4182] fall in the same range of Ki: 76 to 250 nM for the first, 76 to 250 nM for the second.

CC(C)[C@H](NC(=O)N[C@H](C(=O)N1C[C@H]2[C@@H]([C@H]1C(=O)NC(CC1CC1)C(=O)C(N)=O)C2(C)C)C(C)(C)C)C(=O)c1cccc(Br)n1 (stereo partly shown) [compound 4100] and C=CCNC(=O)C(=O)C(CCC)NC(=O)[C@@H]1[C@@H]2[C@H](CN1C(=O)[C@@H](NC(=O)N[C@H](C(=O)c1ccc(N(C)C)cc1)C(C)C)C(C)(C)C)C2(C)C (stereo partly shown) [compound 4122] cannot be ordered by Ki: under 75 nM for the first, under 75 nM for the second.

Going from C=CCNC(=O)C(=O)C(CCC)NC(=O)[C@@H]1[C@H]2CC(C)(C)O[C@H]2CN1C(=O)[C@@H](NC(=O)N[C@H](C(=O)c1ccccc1)C(C)C)C(C)(C)C (stereo partly shown) [compound 4151] to CC(C)[C@H](NC(=O)N[C@H](C(=O)N1CC2OC(C)(C)CC2[C@H]1C(=O)NC(CC1CCC1)C(=O)C(N)=O)C(C)C)C(=O)c1nccs1 (stereo partly shown) [compound 4209], the Ki rises from under 75 nM to over 250 nM. The first binds more tightly here.

C#CCCC(NC(=O)[C@@H]1[C@@H]2[C@H](CN1C(=O)[C@@H](NC(=O)NC1(CC(=O)C(C)(C)C)CCCCC1)C(C)(C)C)C2(C)C)C(=O)C(=O)NCC=C (stereo partly shown) [compound 4067] and C#CCCC(NC(=O)[C@@H]1[C@@H]2[C@H](CN1C(=O)[C@@H](NC(=O)N[C@H](C(=O)C1(C)CC1)C1CCCCC1)C1CCCCC1)C2(C)C)C(=O)C(=O)NCC=C (stereo partly shown) [compound 4053] cannot be ordered by Ki: under 75 nM for the first, under 75 nM for the second.

In the case of CCCC(NC(=O)[C@@H]1[C@@H]2[C@H](CN1C(=O)[C@@H](NC(=O)N[C@H](C(=O)C1CC1)C1CCCCC1)C(C)(C)C)C2(C)C)C(=O)C(N)=O (stereo partly shown) [compound 4091], the Ki is reported as under 75 nM.

Same assay, conditions: Table 3, Esters; read-out: Ki* Range

Going from CC(C)[C@H](NC(=O)N[C@H](C(=O)N1C[C@@H]2OC(C)(C)C[C@@H]2[C@H]1C(=O)NC(CC1CC1)C(=O)C(=O)NCCC(=O)OC(C)(C)C)C1CCCCC1)C(=O)OCc1ccccc1 (stereo partly shown) [compound 4659] to C=CCNC(=O)C(=O)C(CCC)NC(=O)[C@@H]1[C@@H]2[C@H](CN1C(=O)[C@@H](NC(=O)N[C@H](C(=O)OCc1ccccc1)C1CCCC1)C(C)(C)C)C2(C)C (stereo partly shown) [compound 4417], the Ki falls from over 250 nM to under 75 nM.

First: CC(C)(C)[C@H](NC(=O)NC1(C(=O)OCc2ccoc2)CCCCC1)C(=O)N1C[C@H]2[C@@H]([C@H]1C(=O)NC(CC1CCC1)C(=O)C(N)=O)C2(C)C (stereo partly shown) [compound 4476]
Second: COc1ccc(COC(=O)C2(NC(=O)N[C@H](C(=O)N3C[C@H]4[C@@H]([C@H]3C(=O)NC(CC3CC3)C(=O)C(N)=O)C4(C)C)C(C)(C)C)CCCCCC2)cc1 (stereo partly shown) [compound 4575]
The Ki of the first is lower: under 75 nM for the first, 76 to 250 nM for the second.

CC(C)(C)[C@@H](NC(=O)N[C@@H](C(=O)N1C[C@H]2[C@@H]([C@H]1C(=O)NC(CC1CCC1)C(=O)C(N)=O)C2(Cl)Cl)C(C)(C)C)C(=O)OC1Cc2ccccc2C1 (stereo partly shown) [compound 4530] and CC(C)(C)[C@H](NC(=O)N[C@H](C(=O)N1C[C@H]2[C@@H]([C@H]1C(=O)NC(CC1CC1)C(=O)C(N)=O)C2(C)C)C(C)(C)C)C(=O)OC1CCCC1 (stereo partly shown) [compound 4466] cannot be ordered by Ki: under 75 nM for the first, under 75 nM for the second.

Going from CC(C)OC(=O)[C@@H](NC(=O)N[C@H](C(=O)N1C[C@H]2[C@@H]([C@H]1C(=O)N[C@@H](CC1CC1)C(=O)C(=O)NCCC(=O)OC(C)(C)C)C2(C)C)C(C)(C)C)C(C)C [compound 4378] to C=CCNC(=O)C(=O)C(CC(C)C)NC(=O)[C@@H]1[C@@H]2[C@H](CN1C(=O)[C@@H](NC(=O)N[C@H](C(=O)OC(C)(C)C)C(C)C)C(C)(C)C)C2(C)C (stereo partly shown) [compound 4639], the Ki rises from under 75 nM to over 250 nM. The first binds more tightly here.

C#CCCC(NC(=O)[C@@H]1[C@@H]2[C@H](CN1C(=O)[C@@H](NC(=O)NC(C(=O)OC(C)(C)C)C(C)(C)C)C(C)(C)C)C2(C)C)C(=O)C(=O)NCC#C (stereo partly shown) [compound 4528] and CC(C)(C)OC(=O)[C@@H](NC(=O)N[C@H](C(=O)N1C[C@H]2[C@@H]([C@H]1C(=O)NC(CCC(F)(F)F)C(=O)C(N)=O)C2(C)C)C(C)(C)C)C(C)(C)C (stereo partly shown) [compound 4404] cannot be ordered by Ki: under 75 nM for the first, under 75 nM for the second.

First: CNC(=O)C(=O)C(CCC(F)(F)F)NC(=O)[C@@H]1[C@@H]2[C@H](CN1C(=O)[C@@H](NC(=O)N[C@H](C(=O)OC1CCCC1)C(C)C)C(C)(C)C)C2(C)C (stereo partly shown) [compound 4616]
Second: C=CCNC(=O)C(=O)C(CCC(F)(F)F)NC(=O)[C@@H]1[C@@H]2[C@H](CN1C(=O)[C@@H](NC(=O)N[C@H](C(=O)OCC1CC1)C(C)(C)C)C(C)(C)C)C2(C)C (stereo partly shown) [compound 4446]
The Ki of the first is higher: 76 to 250 nM for the first, under 75 nM for the second.

CCC(CC)(NC(=O)N[C@H](C(=O)N1C[C@H]2[C@@H]([C@H]1C(=O)NC(CC1CC1)C(=O)C(N)=O)C2(C)C)C(C)(C)C)C(=O)OCC1CC1 (stereo partly shown) [compound 4533] and CC(C)(C)[C@H](NC(=O)N[C@H](C(=O)OCC1CC1)C1CCC1)C(=O)N1C[C@H]2[C@@H]([C@H]1C(=O)NC(CC1CC1)C(=O)C(N)=O)C2(C)C (stereo partly shown) [compound 4323] cannot be ordered by Ki: under 75 nM for the first, under 75 nM for the second.

CNC(=O)C(=O)C(CC1CC1)NC(=O)[C@@H]1[C@@H]2[C@H](CN1C(=O)[C@@H](NC(=O)NC1(C(=O)OCc3ccccc3)CCCCC1)C(C)(C)C)C2(C)C (stereo partly shown) [compound 4627] and CC(C)[C@H](NC(=O)N[C@H](C(=O)OCc1ccccc1)C(C)(C)C)C(=O)N1C[C@H]2[C@@H]([C@H]1C(=O)NC(CC1CC1)C(=O)C(N)=O)C2(C)C (stereo partly shown) [compound 4545] fall in the same range of Ki: 76 to 250 nM for the first, 76 to 250 nM for the second.

CC(C)(C)[C@H](NC(=O)N[C@H](C(=O)N1C[C@H]2[C@@H]([C@H]1C(=O)NC(CC1CC1)C(=O)C(N)=O)C2(C)C)C(C)(C)C)C(=O)OC1CCCCC1 (stereo partly shown) [compound 4551] and COC(=O)C(C)(C)NC(=O)N[C@H](C(=O)N1C[C@H]2[C@@H]([C@H]1C(=O)NC(CC1CCC1)C(=O)C(N)=O)C2(Cl)Cl)C(C)(C)C (stereo partly shown) [compound 4565] fall in the same range of Ki: 76 to 250 nM for the first, 76 to 250 nM for the second.

For CCCCC(NC(=O)[C@@H]1[C@@H]2[C@H](CN1C(=O)[C@@H](NC(=O)N[C@H](C(=O)OC(C)(C)C)C(C)(C)C)C1CCCCC1)C2(C)C)C(=O)C(=O)NCCC#N (stereo partly shown) [compound 4569], the Ki was 76 to 250 nM.

Same assay, conditions: Table 5: Amides; read-out: Ki* Range

CC(C)[C@H](NC(=O)N[C@H](C(=O)N1C[C@H]2[C@@H]([C@H]1C(=O)NC(CC1CC1)C(=O)C(N)=O)C2(C)C)C(C)(C)C)C(=O)NS(=O)(=O)c1ccccc1 (stereo partly shown) [compound 4800] gave a Ki of under 75 nM.

Same assay, conditions: Table 6; read-out: Ki* range

First: CC1(C)[C@@H]2[C@@H](C(=O)NC(CC3CC3)C(=O)C(N)=O)N(C(=O)[C@@H](NC(=O)NC3(Cc4cccc(O)c4)CCCCC3)C3Cc4ccccc4C3)C[C@@H]21 (stereo partly shown) [compound 4958]
Second: CC(=O)N1CCCC(Cc2ccccc2)(NC(=O)N[C@H](C(=O)N2C[C@H]3[C@@H]([C@H]2C(=O)NC(CC2CC2)C(=O)C(N)=O)C3(C)C)C(C)(C)C)C1 (stereo partly shown) [compound 4979]
The Ki of the first is lower: under 75 nM for the first, 76 to 250 nM for the second.

CC(C)(C)[C@H](NC(=O)N[C@H](Cc1ccccc1)C(C)(C)C)C(=O)N1C[C@H]2[C@@H]([C@H]1C(=O)NC(CC1CC1)C(=O)C(N)=O)C2(C)C (stereo partly shown) [compound 4964] and C#CCCC(NC(=O)[C@@H]1[C@H]2CC(C)(C)O[C@H]2CN1C(=O)[C@@H](NC(=O)NC1(Cc2ccccc2)CCCCC1)C(C)(C)C)C(=O)C(=O)NCC=C (stereo partly shown) [compound 4971] fall in the same range of Ki: 76 to 250 nM for the first, 76 to 250 nM for the second.

Same assay, conditions: Table 8; read-out: Ki*

CC(C)(C)[C@H](NC(=O)N[C@H](C(=O)C1CC1)C1CCCCC1)C(=O)N1C[C@H]2[C@@H]([C@H]1C(=O)NC(CC1CC1)C(=O)C(N)=O)C2(C)C (stereo partly shown) [drawing 1471] showed a Ki of 8 nM.
